Measured values as given in PubChem BioAssay AID1347428 (National Center for Advancing Translational Sciences (NCATS), 2020).
About 290 (0.32%) of roughly 91,000 compounds were called active. The shares of active, inactive and inconclusive entries below differ from those in the screen. Calls come from the whole dose curve; as a rule, active = well fitted inhibition curve with a large enough effect; inconclusive = small, poorly fitted or top-dose-only effect; inactive = no such curve, though single readings can be large or run the other way. Potencies beside an inconclusive call are fits to weak or partial responses and may not hold up.

molecular target: Single-stranded DNA cytosine deaminase (Homo sapiens) (UniProt Q9GZX7); test: Primary qHTS assay for inhibitors of Activation Induced Cytidine Deaminase (AID): AID signal; conditions: AID deamination FRET fluorescence, UDG-coupled, 4 h; activity change, negative = inhibition: at 115 µM (top of the series); note: nearly all actives have a fitted effect of over 25% in size
UniProt Q9GZX7, sequence (Q9GZX7 whole entry, looked up): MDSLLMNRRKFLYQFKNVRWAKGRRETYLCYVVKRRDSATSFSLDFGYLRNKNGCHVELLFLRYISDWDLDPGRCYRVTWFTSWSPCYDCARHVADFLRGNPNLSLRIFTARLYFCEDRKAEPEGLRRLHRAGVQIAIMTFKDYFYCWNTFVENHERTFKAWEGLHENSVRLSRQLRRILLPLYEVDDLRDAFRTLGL
% is set by controls: 0 for no effect and ±100 for the full control effect; potency is the fitted concentration of half-maximal effect; tags give direction and shape of the fitted curve.

| Compound | Potency | activity change, negative = inhibition |
| --- | --- | --- |
| COc1cccc(Nc2nc(-c3ccccc3)c3cc(C)ccc3n2)c1 | inconclusive: 22.4 µM [inhibitor, full curve, poor fit] |  |
| CCc1nc2ccc(C(=O)N3CCN(c4ccc(Cl)cc4)CC3)cc2nc1CC | inconclusive: 50.1 µM [inhibitor, partial curve, poor fit] |  |
| Cc1ccc(Cl)cc1N1CCN(C(=O)c2ccc(C)c(-n3c(C)nc4cccnc43)c2)CC1 | inconclusive: 56.2 µM [inhibitor, partial curve, poor fit] |  |
| COc1ccc(CNC(=O)Cn2c(=O)oc3cc(S(=O)(=O)N4CCCC4)ccc32)cc1 | inconclusive: 39.8 µM [inhibitor, partial curve, poor fit] |  |
| CC(C)(C)C(=O)Nc1c(C(=O)N2CCN(c3ccc(F)cc3)CC2)oc2ccccc12 | inconclusive: 17.8 µM [inhibitor, full curve, poor fit] |  |
| O=c1[nH]nc(-c2ccc(N3CCCCC3)c([N+](=O)[O-])c2)c2ccccc12 |  | inactive: -7.93% |
| CCOC(=O)c1ccc(Oc2c(C)oc3cc(OCC(=O)c4ccc(OC)cc4)ccc3c2=O)cc1 |  | inactive: -0.217% |
| COc1ccc(CNc2ncnc3c2c(-c2ccccc2)cn3-c2ccccc2)cc1 | inconclusive: 15.8 µM [inhibitor, partial curve, poor fit] |  |
| COCCc1nn2c(=O)cc(COC(=O)c3ccc(C(C)(C)C)cc3)nc2s1 | inconclusive: 44.7 µM [inhibitor, partial curve] |  |
| Cc1nnc(SCC(=O)NCc2ccccc2F)c2nn(-c3ccc(Cl)cc3)c(C)c12 | inconclusive: 44.7 µM [inhibitor, partial curve, poor fit] |  |
| O=C(c1ccc2c(Cl)c3c(nc2c1)CCCC3)N1CCN(c2cccc(Cl)c2)CC1 | active: 14.1 µM |  |
| CN(C)c1ccc(C(CNS(=O)(=O)c2ccc(Br)cc2)N2CCOCC2)cc1 (configuration not stated) | inconclusive: 50.1 µM [inhibitor, partial curve, poor fit] |  |
| Cc1ccc(C)c(S(=O)(=O)c2nnn3c2nc(NCc2ccc4c(c2)OCO4)c2sccc23)c1 | inconclusive: 10 µM [inhibitor, partial curve, poor fit] |  |
| Cc1ccc(-n2ncc(C(=O)N3CCN(Cc4ccccc4)CC3)c2C2CCN(C(=O)OC(C)(C)C)CC2)c(C)c1 | inconclusive: 50.1 µM [inhibitor, partial curve, poor fit] |  |
| O=C(Nc1ccc2c(c1)N(C1CCCC1)C(=O)c1ccccc1S2)c1ccc(F)cc1 | inconclusive: 79.4 µM [inhibitor, single point] |  |
| Cc1c(C(=O)N(C)c2cccc(C(F)(F)F)c2)sc2nc3n(c(=O)c12)CCCCC3 | inconclusive: 2.82 µM [inhibitor, full curve, poor fit] |  |
| CCOc1ccc(CCNC(=O)c2ccc3nc(CC)c(CC)nc3c2)cc1 | inconclusive: 50.1 µM [inhibitor, partial curve, poor fit] |  |
| CCCCCC1CCC(c2ccc(C(=O)O)cc2)CC1 (configuration not stated) | inconclusive: 89.1 µM [inhibitor, partial curve, poor fit] |  |
| CCCC12CN3CC(C)(CN(C1)C3c1cn(C)c3ccccc13)C2=O (configuration not stated) | inconclusive: 89.1 µM [inhibitor, single point] |  |
| Fc1ccc(N/N=C/c2ccccc2Cl)c(F)c1 |  | inactive: -11.9% |
| CCNc1sc(C(C)=O)c(N)c1C#N |  | inactive: 26.6% |

| Compound | Potency | activity change, negative = inhibition |
| --- | --- | --- |
| COc1ccc(CCNC(=O)CS(=O)Cc2nc(-c3ccc(C)cc3)oc2C)c(OC)c1 (configuration not stated) | inconclusive: 79.4 µM [inhibitor, partial curve, poor fit] |  |
| CC1CC(=O)C(C)(C)N(C)C1 (configuration not stated) |  | inactive: -0.367% |
| COc1ccc(N2C(=O)CCS2(=O)=O)cc1S(=O)(=O)N1CCN(c2ccccc2)CC1 |  | inactive: 3.03% |
| Cc1ccc(C(CC(=O)Nc2cc(C)cc(C)c2)N2Cc3ccccc3C2=O)cc1 (configuration not stated) | inconclusive: 39.8 µM [inhibitor, full curve, poor fit] |  |
| Cc1ccc(NC(=O)C2CCCN(c3nnc(-n4c(C)ccc4C)s3)C2)cc1Cl (configuration not stated) | inconclusive: 15.8 µM [inhibitor, full curve, poor fit] |  |
| CCCCc1ccc(NC(=O)COc2cccc3c(=O)n(C)ccc23)cc1 |  | inactive: 80.6% |
| CCc1ccc(NC(=O)CN2C(=O)C(c3ccccc3)=NC23CCCCCC3)cc1 | inconclusive: 17.8 µM [inhibitor, partial curve, poor fit] |  |
| COc1ccc(S(=O)(=O)N(C)Cc2nc(-c3cccc(C)c3)no2)cc1 | inconclusive: 89.1 µM [inhibitor, partial curve, poor fit] |  |
| Clc1ccc2nc(-c3ccc(Br)o3)c(Nc3ccc4c(c3)OCCO4)n2c1 | inconclusive: 100 µM [inhibitor, single point] |  |
| COc1ccc(C2CC(=O)Nc3nc(N)sc32)cc1OC1CCCC1 (configuration not stated) | inconclusive: 20 µM [inhibitor, full curve, poor fit] |  |
| Cc1cc(C)c(/C=C/c2onc(C)c2S(=O)(=O)N2CCC(C(=O)N3CCN(c4ccc(Cl)cc4)CC3)CC2)c(C)c1 |  | inactive: -6.96% |
| O=C(NCc1cccc(Br)c1)c1cccn1-c1nnc(N2CCCCC2)s1 | inconclusive: 79.4 µM [inhibitor, partial curve, poor fit] |  |
| CCN(CC)C(=O)Cn1c(=O)n(CCCCCC(=O)NCc2ccccc2Cl)c(=O)c2sccc21 | inconclusive: 89.1 µM [inhibitor, single point] |  |
| Cc1ccc(Cl)cc1N1CCN(C(=O)Cn2cnc3nc4c(cc3c2=O)CCCC4)CC1 | active: 39.8 µM |  |
| COc1ccc(NC(=O)Cn2nnc(C(=O)NCc3ccccc3Cl)c2N)cc1Cl | inconclusive: 89.1 µM [inhibitor, single point] |  |
| Cc1ccc(/C=C/c2onc(C)c2S(=O)(=O)N2CCC(C(=O)N3CCOc4ccccc43)CC2)cc1 | inconclusive: 3.16 µM [inhibitor, partial curve, poor fit] |  |
| Cc1ccc(CCNc2nc3c(S(=O)(=O)c4ccc(C)cc4)nnn3c3ccsc23)cc1 | inconclusive: 39.8 µM [inhibitor, partial curve, poor fit] |  |
| CC(C)c1ccc(NC(=O)c2cc(S(=O)(=O)NCCC3=CCCCC3)ccc2F)cc1 | inconclusive: 44.7 µM [inhibitor, partial curve] |  |
| COc1ccc(CNC(=O)CN(C)S(=O)(=O)c2ccc3[nH]c4c(c3c2)CCCC4)cc1 |  | inactive: 23% |
| O=c1[nH]c2ccccc2c(-c2ccccc2)c1Sc1nc2ccccc2s1 | inconclusive: 31.6 µM [inhibitor, partial curve, poor fit] |  |
| COc1ccc(OCCCn2c(C)nc3cc(C)c(C)cc32)cc1 | inconclusive: 31.6 µM [inhibitor, partial curve, poor fit] |  |

| Compound | Potency | activity change, negative = inhibition |
| --- | --- | --- |
| COC(=O)C(C)N1C(=O)S/C(=C/c2ccc(Sc3ccccc3)cc2)C1=O (configuration not stated) |  | inactive: -4.05% |
| CCOC(=O)c1c(-c2ccc(OC)cc2)oc2ccc(OCc3ccc(F)cc3F)cc12 |  | inactive: -5.44% [at 57.5 µM] |
| CC1CCN(c2nc3c(S(=O)(=O)c4cccc(Cl)c4)nnn3c3ccsc23)CC1 | inconclusive: 28.2 µM [inhibitor, single point] |  |
| CCOc1ccc(Nc2ncnc3onc(-c4ccc(Cl)cc4)c23)cc1 | inconclusive: 22.4 µM [inhibitor, partial curve, poor fit] |  |
| COc1ccc(CCNC(=O)Cn2nc(-c3ccc(Cl)cc3)ccc2=O)cc1OC | inconclusive: 89.1 µM [inhibitor, single point] |  |
| COc1cc(NC(=O)Cn2cc(S(=O)(=O)N3CCC(C)CC3)c3ccccc3c2=O)cc(OC)c1OC | inconclusive: 39.8 µM [inhibitor, full curve, poor fit] |  |
| CCCC(C(=O)Nc1cc(C)c(Cl)cc1OC)N1Cc2ccccc2C1=O (configuration not stated) | inconclusive: 35.5 µM [inhibitor, partial curve, poor fit] |  |
| O=C(O)Cc1sc(NC2CC2)nc1-c1ccccc1 |  | inactive: 1.93% |
| CC(Oc1ccc(C=Nc2ccc(N3CCOCC3)cc2)cc1)C(=O)O (configuration not stated) |  | inactive: 30.5% |
| Cc1ccc(C(=O)c2cn(CC(=O)Nc3ccc4c(c3)OCCO4)c3nc(C)ccc3c2=O)cc1 | inconclusive: 50.1 µM [inhibitor, partial curve, poor fit] |  |
| CCOc1ccc(Nc2c(S(=O)(=O)c3ccccc3)cnc3ccc(CC)cc23)cc1 | inconclusive: 11.2 µM [inhibitor, partial curve, poor fit] |  |
| COc1cccc(N2CCN(C(=O)Cn3ncc4c3-c3ccccc3OC4)CC2)c1 | inconclusive: 89.1 µM [inhibitor, partial curve, poor fit] |  |
| CCCCCc1ccc(-c2ccc(C(=O)O)cc2)cc1 |  | inactive: -26% |
| CCc1ccccc1NC(=O)C1CC1 |  | inactive: 1.57% |
| Fc1ccc(-n2c(Cc3ccccc3)nnc2SCc2ccc(Br)cc2)cc1 | inconclusive: 44.7 µM [inhibitor, partial curve] |  |
| COc1ccccc1N(CCC#N)C(=O)CSc1ncnc2sc(C)c(C)c12 | inconclusive: 79.4 µM [inhibitor, single point] |  |
| CCCCCCn1c(/C=C/c2ccccc2)nc2ccccc21 | inconclusive: 89.1 µM [inhibitor, single point] |  |
| CSc1cccc(NC(=O)c2ccc3c(c2)CCCN3S(C)(=O)=O)c1 | inconclusive: 50.1 µM [inhibitor, partial curve, poor fit] |  |
| COc1ccc(NCC(=O)NNC(=O)CCOc2ccccc2OC)cc1 |  | inactive: -10.2% |
| COC(=O)C1=C(C)NC(=O)NC1c1cn(-c2ccccc2)nc1-c1ccc(OC)c(Cl)c1 (configuration not stated) |  | inactive: -22% |
